Experimental findings from ChEMBL document CHEMBL4888484, “Replenishing the malaria drug discovery pipeline: Screening and hit evaluation of the MMV Hit Generation Library 1 (HGL1) against asexual blood stage Plasmodium falciparum ,using a nano luciferase reporter read-out” (2022) are described below.

Out of some 150,000 compounds screened, about 540 (0.36%) showed an effect of 50% or more. This is one part of the list.

The test has as its system Plasmodium falciparum. Kind of test: Primary screen in NF54 nanoGlo assay, in single point, at 2uM, 72h; a lower Z score goes with more inhibition. Format: functional, Erythrocyte. The conditions noted are these: timepoint 72 hour.
Take `CCCN(CC)c1ccc(C(=O)N2CCC[C@@H]2C(=O)O)cn1`: the “% Inhibition” value was -20% and the Z score stood at 2.55.
Taken in the same sequence, the figures for `CO[C@H]1[C@@H]2CC[C@H]1CN(C(=O)Nc1c(C)cnn1Cc1cccc(C)c1)C2` were -9% and 1.71.
For `CC(C)C(=O)Nc1nc2n(n1)[C@H](c1ccc(Cl)cc1)CC(=O)N2`, in that order: 4% and -0.55.
Taken in the same sequence, the figures for `COc1ccc(-c2cc(C(=O)N[C@H](C(=O)NCc3ccco3)C(C)C)no2)c(OC)c1` were -20% and 2.92.
With `Cc1oncc1CNC(=O)c1ccccc1F`, the “% Inhibition” value was -2% and the Z score was 0.38.
Taken in the same sequence, the figures for `CCn1ccnc1CN(C)C1CCN(c2ncnc3sc(C)cc23)CC1` were -3% and 0.26.
Taken in the same sequence, the figures for `Nc1nc(-c2cc3ccccc3o2)c2cn[nH]c2n1` were 2% and -0.22.
Taken in the same sequence, the figures for `Cc1cc2c(NC[C@H]3CCOC(C)(C)C3)nccn2n1` were 13% and -1.67.
For the molecule `O=C(O)[C@H]1CCN(C(=O)C2(Cc3ccccc3)CCC2)C1`, the “% Inhibition” value is listed as -5% and the Z score is recorded as 0.76.
Consider `O=C(NCCc1ccccn1)c1ccc(OCc2ccccc2)cc1`, for which the “% Inhibition” value is listed as -3% and the Z score worked out at 0.39.
As to `Cn1ncn(CC(=O)N2CCN(c3cccc(C(F)(F)F)c3)CC2)c1=O`, the “% Inhibition” value came out at 8% and the Z score is listed as -0.96.
For `CC(C)NC(=O)NCCNS(=O)(=O)N(C)C1CCCC1`, in that order: -3% and 0.42.
Taken in the same sequence, the figures for `C[C@@H](C(=O)Nc1ccc2c(c1)OCCO2)n1nc(-c2ccccc2)c2cc(Cl)ccc21` were -5% and 0.86.
Taken in the same sequence, the figures for `CCCN1CCn2cc(C(=O)NCc3cccc(OC)c3)nc2C1` were 0% and -0.03.
For `Cc1ccc2nc(-n3nc(C)c4c3NC(=O)C[C@@H]4c3c(C)sc4ccccc34)sc2c1`, the “% Inhibition” value is -3% and the Z score turned out to be 0.31.
Taken in the same sequence, the figures for `Cc1cc(C)cc(OCC(=O)N2CCN(C(=O)c3cc[nH]c3C)CC2)c1` were -5% and 0.68.
Taken in the same sequence, the figures for `CCN(CC)c1nc(-c2ccccc2)c2cc(Br)ccc2n1` were -12% and 2.04.
For `Cc1c(Cl)ccc2c(C(=O)NC3CCN(C)CC3)cc(-c3cccnc3)nc12`, in that order: 20% and -2.75.
Turning to `COc1ccc2[nH]cc([C@H](CC(=O)NCc3ccccc3)c3cccc(C(F)(F)F)c3)c2c1`, the “% Inhibition” value was found to be 4% and the Z score is recorded as -0.45.
Taken in the same sequence, the figures for `CC(C)c1noc(CN[C@H](c2cccs2)C(C)C)n1` were -6% and 0.69.
For `CC(C)(C)c1nc(CN2CCC[C@H]2C(=O)O)cs1`, in that order: -7% and 0.99.
Turning to `CN1CCN(S(=O)(=O)c2cnc3n2CCC3)c2ccc(Br)cc21`, the “% Inhibition” value was -13% and the Z score was found to be 1.16.
For `Cc1ccc(O)c(NC(=O)[C@]2(c3ccccc3)CCCO2)n1`, in that order: -8% and 1.42.
Taken in the same sequence, the figures for `CCOc1ccc(C(=O)Nc2cc(-c3noc(CC)n3)sc2C)cc1` were 0% and -0.03.
On to `CCN(C(=O)c1cnc(-c2cccs2)nc1)[C@H]1CCS(=O)(=O)C1`, for which the “% Inhibition” value is -5% and the Z score is listed as 0.82.
Taken in the same sequence, the figures for `O=C(Cc1ccc2c(c1)OCO2)N1CCN(c2ccc3[nH]ncc3c2)C(=O)C1` were -9% and 1.13.
For `C[C@@H]1OCCO[C@@H]1C(=O)Nc1ccccc1-n1nccn1`, in that order: -6% and 1.1.
For `CC1(C)CN(C(=O)Cc2cnn(-c3ccccc3)n2)CCO1`, in that order: -6% and 0.99.
Turning to `NCc1cn(C2CCN(C(=O)[C@H]3CCc4ccccc4C3)CC2)nn1`, the “% Inhibition” value is -12% and the Z score was determined as 1.13.
Taken in the same sequence, the figures for `O=C(Nc1cnc2c(c1)COCC2)c1ccc2ccccc2n1` were -4% and 0.48.
For `CCCCOc1c(Cl)cc(C(=O)N2CCC[C@@H](N)C2)cc1OCC`, in that order: 0% and 0.03.
Turning to `CCC(NC(=O)c1csc(C2CC2)n1)C1CN(Cc2ccccc2)CCO1` (centres undefined), the “% Inhibition” value was found to be 2% and the Z score is given as -0.19.
For `CN(CC(=O)N[C@H]1CCCc2ccccc21)S(=O)(=O)c1c[nH]c(C(=O)N2CCCCCC2)c1`, in that order: -7% and 0.69.
For `O=C1N(CC2CCC2)CCC[C@@]12CCN(Cc1coc(-c3ccccc3)n1)C2`, the “% Inhibition” value is -20% and the Z score was found to be 2.14.
Take `CCCC(=O)N1CCC(Cn2ccc3cccnc32)CC1`: the “% Inhibition” value is -14% and the Z score came to 2.46.
Taken in the same sequence, the figures for `CC(C)n1ccc(C(=O)N[C@@H](C)c2ccccn2)n1` were -9% and 1.04.
As to `Cc1ccc(-c2ncc(C(=O)NCCC(C)C)c(C)n2)cc1`, the “% Inhibition” value was 5% and the Z score is -0.53.
`CNc1cc(N2CCCN(C(=O)CC3CCCC3)CC2)ncn1`: the “% Inhibition” value was -8% and the Z score was 1.05.
Taken in the same sequence, the figures for `Cc1cc(C(=O)N(C[C@H]2CCCO2)c2nc3c(Cl)cccc3s2)c(C)o1` were 5% and -0.87.
For `CCOC[C@@H]1CC(F)(F)CN1C1CN(C(=O)c2ccn(CC)n2)C1`, in that order: -18% and 2.1.
Taken in the same sequence, the figures for `Cc1cccc(OC2CCN(C(=O)[C@H](O)c3ccccc3)CC2)c1` were -2% and 0.3.
Regarding `O=C(CN1C(=O)CCC1=O)N1CCN(c2cc3c(nn2)CCCC3)CC1`, the “% Inhibition” value is recorded as -8% and the Z score stood at 1.34.
